Data: the supplement of paper PMC4166925
± gives the standard deviation of the averaged measurements. Whole data set: some 33,000 sequences, median “E-score (dimensionless, -0.5 to 0.5)” near -0.049, cut for the highest 2% near 0.37. The list shows a part of the results.

System: T1, PmTbr T-box DNA-binding domain (GST fusion)
T1 sequence: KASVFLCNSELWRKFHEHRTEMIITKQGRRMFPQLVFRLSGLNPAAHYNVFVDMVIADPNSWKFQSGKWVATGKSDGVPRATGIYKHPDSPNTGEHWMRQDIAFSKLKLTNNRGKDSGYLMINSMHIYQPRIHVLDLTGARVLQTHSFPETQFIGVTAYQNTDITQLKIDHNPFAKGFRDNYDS
Experiment: PBM E-score of 8-mer (E-score (dimensionless, -0.5 to 0.5)); Tbr is Tbrain of the sea star Patiria miniata (Pm) or the sea urchin Strongylocentrotus purpuratus (Sp); higher = stronger binding preference; most listed sequences are background and not binding sites
Settings: the construct has about 5 more residues each side
Procedure, shortened: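 Using the Universal PBM Analysis Suite, every ungapped 8-mer received an enrichment E-score averaged over duplicate arrays. Probe intensities came from double-stranded Universal Agilent oligonucleotide arrays incubated with 200 nM GST-fused Tbr T-box DNA-binding domain in PBS (pH 7.5). That protein was expressed in BL21 E. coli at 20 °C and purified by glutathione affinity chromatography.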

Sequence | PBM E-score of 8-mer
AACGGTCC | -0.0739 ± 0.0076
AAACAAGC | -0.0443 ± 0.068
GCTATACC | -0.0444 ± 0.016
AGCACCTG | 0.415 ± 0.0079
CGCTCACC | 0.0475 ± 0.083
ATCAGCAA | -0.157 ± 0.077
AAAGACCC | -0.289 ± 0.021
ATGCTTGA | -0.0981 ± 0.12
ATGCGCGA | 0.286 ± 0.011
TCGATCCA | -0.0612 ± 0.023
ACTGGAGA | -0.158 ± 0.018
ATCACAAG | 0.278 ± 0.003
AGAGGACT | -0.267 ± 0.051
AGGTTTAC | -0.0264 ± 0.055
CACGACAA | 0.123 ± 0.016
CTCCCCTC | -0.123 ± 0.017
AAGTACAA | -0.1659 ± 0.00023
ATCCGATA | -0.265 ± 0.011
GGGTATCA | -0.0465 ± 0.028
CTCTTTTC | -0.112 ± 0.059
CTGAGAAA | 0.00608 ± 0.019
CTCCCGGA | -0.16 ± 0.076
AAGATGCG | 0.044 ± 0.053
GACGTGTA | 0.149 ± 0.019
AACACGAA | 0.0255 ± 0.012

Sequence | PBM E-score of 8-mer
GAAGGCTA | -0.188 ± 0.0033
CTATGAAC | 0.0868 ± 0.031
AACACCAC | 0.3719 ± 0.0024
GCTGAAAA | 0.00941 ± 0.013
CGGATCCA | -0.0512 ± 0.084
AGTAGTCA | -0.0777 ± 0.054
GAATTGGC | 0.00583 ± 0.0077
ATAAACAT | -0.0888 ± 0.037
GTATGCAA | -0.141 ± 0.029
AACCGGTA | 0.0232 ± 0.018
ACCGTGTA | 0.0543 ± 0.064
CAATCCAC | -0.0294 ± 0.022
TAAGCTGA | -0.126 ± 0.0068
CTGAAGAA | -0.165 ± 0.065
CTCACCAC | 0.209 ± 0.054
TAACCTAA | 0.0219 ± 0.063
TCATATAA | -0.11 ± 0.038
ATCGAATA | -0.131 ± 0.025
AGCTGCCT | 0.0585 ± 0.059
TAAATTCA | -0.1 ± 0.031
CCACCAGA | -0.0155 ± 0.03
GTACATCA | -0.0746 ± 0.021
CTCTAGAA | -0.125 ± 0.028
GGGAGAGA | 0.0403 ± 0.0062
CCTTGGGC | -0.035 ± 0.01

Sequence | PBM E-score of 8-mer
AGCTTTAG | -0.11 ± 0.083
ACGGTCCG | 0.0322 ± 0.021
GGGCACAA | -0.0969 ± 0.053
GTCGAAGA | -0.219 ± 0.02
CGACGTAC | -0.051 ± 0.087
CGTAGACG | -0.21 ± 0.078
GCGTGTAA | 0.0292 ± 0.033
CGCCCTAC | -0.103 ± 0.061
AACAACTC | 0.138 ± 0.0062
CCCATTAG | -0.158 ± 0.063
ATATGAGA | -0.161 ± 0.0032
ACTAATTG | 0.0318 ± 0.075
GAACGTGC | 0.155 ± 0.023
ACGTCGAG | 0.0805 ± 0.015
GAGAGTGC | 0.235 ± 0.059
CGTGCAAA | 0.11 ± 0.0028
GGCAAACA | 0.0878 ± 0.028
CCAGATCC | -0.00069 ± 0.11
AACCGACT | -0.0591 ± 0.054
CGACTGCA | -0.204 ± 0.15
AACAAACC | -0.0345 ± 0.066
AGTGACTA | 0.115 ± 0.011
ACAGATGC | 0.0482 ± 0.0091
CTCAAGAC | -0.141 ± 0.045
ACCTATAG | -0.0514 ± 0.14

Sequence | PBM E-score of 8-mer
AGGCCATG | -0.279 ± 0.0077
GCAAAAAC | 0.103 ± 0.0046
CCTCATAC | -0.11463 ± 9.9e-05
TCAGTAAA | -0.175 ± 0.076
CTCACCCC | 0.295 ± 0.021
CGCCGCGA | 0.141 ± 0.049
GTTAACTA | 0.131 ± 0.037
CGTCCCAA | -0.169 ± 0.0075
CATCTCCC | -0.0811 ± 0.059
ATGAAAAT | -0.027 ± 0.027
ATGGCCAC | -0.148 ± 0.062
TAAGAGGA | -0.184 ± 0.03
CAGTTCAG | -0.242 ± 0.024
AAAATTAC | 0.0695 ± 0.1
AAGGCGAG | 0.293 ± 0.031
GTTGAAAA | 0.102 ± 0.13
CCGTCTAA | -0.215 ± 0.069
CTGTAAGA | 0.00129 ± 0.065
AACGGACT | 0.123 ± 0.061
ACGGCACA | 7.5e-05 ± 0.098
GTTTATTA | -0.1957 ± 0.00052
ACATCCAA | 0.0673 ± 0.015
GTCCTCCA | -0.177 ± 0.035
TAATAGTA | -0.151 ± 0.03
ATCGGAAG | 0.0222 ± 0.087

Sequence | PBM E-score of 8-mer
CCTAGGAG | 0.0157 ± 0.015
GGGCGGAA | -0.152 ± 0.023
CCGATCAA | 0.0729 ± 0.051
GGATGAAC | -0.097 ± 0.046
GTCGGCCA | -0.0588 ± 0.0088
CCCTAAAA | 0.0409 ± 0.091
ACCAAGCG | 0.09091 ± 0.00011
TACATGTA | -0.28 ± 0.064
CCCCCCAC | -0.302 ± 0.056
CCAGACTA | -0.282 ± 0.089
CCAATTAG | 0.0274 ± 0.061
ATGGGACC | -0.24 ± 0.079
CTCGGGAA | -0.092 ± 0.018
CTAGCGCA | -0.0621 ± 0.011
AGTAACAC | 0.393 ± 0.025
CAGAGCTA | -0.349 ± 0.055
AAAAGATT | -0.136 ± 0.0087
CGCACAAG | 0.04661 ± 0.00035
CACATTTC | 0.3486 ± 0.0015
CAATACAA | -0.215 ± 0.067
GGTGCCTA | 0.0798 ± 0.0059
CATAACTA | -0.0882 ± 0.002
GAGGAGAA | -0.158 ± 0.088
CAGGGAGC | -0.152 ± 0.019
CTCAGTGC | -0.028 ± 0.02

Sequence | PBM E-score of 8-mer
CGGGTACG | -0.125 ± 0.017
CTTAGCCA | -0.0235 ± 0.029
ACGAAGAG | -0.0865 ± 0.021
AGAGCTAA | -0.0863 ± 0.067
CCGGATGC | -0.0416 ± 0.028
AAGGAGAA | -0.289 ± 0.11
ATACTCTG | -0.0952 ± 0.035
ATAGTTGA | -0.0889 ± 0.077
ACCCAACA | 0.19 ± 0.061
CTTGATTC | -0.158 ± 0.019
ATCTAATC | -0.133 ± 0.05
CTAGTAAG | -0.0596 ± 0.04
ACAGAAGG | 0.131 ± 0.03
CTTGAGTA | -0.199 ± 0.047
ACGCTACT | 0.0278 ± 0.048
ATTTATAA | 0.0352 ± 0.066
AGATCATC | 0.0358 ± 0.017
CAGGCAGC | 0.0402 ± 0.07
ACAGCCTG | 0.122 ± 0.014
CGGCACAC | 0.124 ± 0.063
CATGATGG | -0.111 ± 0.0098
AGGTAGCC | -0.188 ± 0.07
GAAGCAGC | -0.0994 ± 0.0054
CATATTGC | 0.0299 ± 0.017
CATCGGCC | -0.2345 ± 0.0021

Sequence | PBM E-score of 8-mer
ATTGTTGA | 0.167 ± 0.0035
AAGTAGTG | 0.124 ± 0.008
ATAACACA | 0.3597 ± 0.0034
ATGCAAGC | -0.113 ± 0.026
AGTTAGAC | -0.197 ± 0.038
ATAGATCA | -0.236 ± 0.047
GGTAGCAA | 0.168 ± 0.028
TATCTAGA | -0.141 ± 0.0091
AGTCAGAA | -0.159 ± 0.05
CTGGCAAC | 0.184 ± 0.08
GATTGCAC | 0.145 ± 0.011
CGAATTGA | -0.21 ± 0.018
TGTGAAAA | 0.38 ± 0.057
ACATATAG | -0.1 ± 0.053
AAGGAACT | -0.103 ± 0.015
CTCCACCC | 0.0426 ± 0.037
GATAGATA | -0.147 ± 0.035
GATCAGGA | -0.0417 ± 0.051
AAGATGGT | -0.0973 ± 0.0091
ACAGGACT | -0.0594 ± 0.0031
ACGTAAAG | -0.103 ± 0.042
CCTCTGCG | -0.0574 ± 0.059
